In publication PMC11348266:
These are yes or no findings as the source states them, for the method shown. In cells and extracts the contact can be indirect. Some binding calls cover weakened binding; strength is not graded here. For part of these data: Sequences can lack the tags named with a protein.

Protein sequences, listed by entry. Tags and fused reporters are not part of them.
UniProt Q96CV9: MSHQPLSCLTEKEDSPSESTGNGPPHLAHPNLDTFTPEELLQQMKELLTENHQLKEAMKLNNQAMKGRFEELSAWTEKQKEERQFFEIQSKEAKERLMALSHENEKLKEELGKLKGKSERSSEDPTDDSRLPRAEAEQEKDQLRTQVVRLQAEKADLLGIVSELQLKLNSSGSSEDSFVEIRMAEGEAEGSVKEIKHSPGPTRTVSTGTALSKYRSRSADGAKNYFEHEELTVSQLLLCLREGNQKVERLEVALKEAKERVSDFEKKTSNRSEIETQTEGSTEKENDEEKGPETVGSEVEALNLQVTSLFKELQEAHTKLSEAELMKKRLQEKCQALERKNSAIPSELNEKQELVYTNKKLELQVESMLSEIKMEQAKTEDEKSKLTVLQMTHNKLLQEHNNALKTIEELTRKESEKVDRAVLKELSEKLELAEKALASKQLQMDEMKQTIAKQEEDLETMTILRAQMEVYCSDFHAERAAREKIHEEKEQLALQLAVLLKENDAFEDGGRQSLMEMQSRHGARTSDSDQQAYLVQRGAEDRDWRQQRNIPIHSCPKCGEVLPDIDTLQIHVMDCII
UniProt O60238: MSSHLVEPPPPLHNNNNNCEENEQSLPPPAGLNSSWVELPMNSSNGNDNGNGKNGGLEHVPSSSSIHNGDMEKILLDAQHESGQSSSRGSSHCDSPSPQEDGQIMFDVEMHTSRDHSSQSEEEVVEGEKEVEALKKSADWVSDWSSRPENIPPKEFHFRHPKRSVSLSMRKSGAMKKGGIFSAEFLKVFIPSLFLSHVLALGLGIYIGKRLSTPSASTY

Key:
Assay in all cases: co-IP; HEK293T cells co-transfected with FLAG-/HA-/MYC-tagged plasmids; RIPA lysates incubated overnight with anti-FLAG or anti-MYC agarose beads, washed five times with RIPA buffer, immunoblot; cells treated with ME49 RNA (Figure 1G) or 3-MA 10 mM (Figures 3L, 4F) in some panels
TBK1 S172A = biological target: T1, TBK1 S172A (UniProt Q9UHD2)
T1 sequence: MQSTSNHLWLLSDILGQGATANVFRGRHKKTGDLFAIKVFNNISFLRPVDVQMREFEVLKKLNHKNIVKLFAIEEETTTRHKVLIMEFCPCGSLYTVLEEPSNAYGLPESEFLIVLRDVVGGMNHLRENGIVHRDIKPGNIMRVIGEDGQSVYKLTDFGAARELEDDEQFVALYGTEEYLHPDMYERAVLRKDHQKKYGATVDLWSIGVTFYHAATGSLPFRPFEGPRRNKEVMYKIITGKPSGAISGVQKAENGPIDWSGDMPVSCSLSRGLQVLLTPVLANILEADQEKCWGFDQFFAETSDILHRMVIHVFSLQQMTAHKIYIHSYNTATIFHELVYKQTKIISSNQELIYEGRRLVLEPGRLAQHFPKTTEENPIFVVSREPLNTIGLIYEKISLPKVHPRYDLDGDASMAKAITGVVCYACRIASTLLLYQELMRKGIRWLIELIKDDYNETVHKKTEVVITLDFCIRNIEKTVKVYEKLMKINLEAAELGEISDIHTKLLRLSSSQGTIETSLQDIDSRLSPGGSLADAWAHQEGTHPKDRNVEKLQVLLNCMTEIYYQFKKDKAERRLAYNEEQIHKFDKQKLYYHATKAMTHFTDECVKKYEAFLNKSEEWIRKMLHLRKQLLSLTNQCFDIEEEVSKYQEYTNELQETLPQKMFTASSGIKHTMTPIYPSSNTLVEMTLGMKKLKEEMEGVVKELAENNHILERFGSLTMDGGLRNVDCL

FLAG-NBR1 = biological target: T2, FLAG-NBR1 (UniProt Q14596)
T2 sequence: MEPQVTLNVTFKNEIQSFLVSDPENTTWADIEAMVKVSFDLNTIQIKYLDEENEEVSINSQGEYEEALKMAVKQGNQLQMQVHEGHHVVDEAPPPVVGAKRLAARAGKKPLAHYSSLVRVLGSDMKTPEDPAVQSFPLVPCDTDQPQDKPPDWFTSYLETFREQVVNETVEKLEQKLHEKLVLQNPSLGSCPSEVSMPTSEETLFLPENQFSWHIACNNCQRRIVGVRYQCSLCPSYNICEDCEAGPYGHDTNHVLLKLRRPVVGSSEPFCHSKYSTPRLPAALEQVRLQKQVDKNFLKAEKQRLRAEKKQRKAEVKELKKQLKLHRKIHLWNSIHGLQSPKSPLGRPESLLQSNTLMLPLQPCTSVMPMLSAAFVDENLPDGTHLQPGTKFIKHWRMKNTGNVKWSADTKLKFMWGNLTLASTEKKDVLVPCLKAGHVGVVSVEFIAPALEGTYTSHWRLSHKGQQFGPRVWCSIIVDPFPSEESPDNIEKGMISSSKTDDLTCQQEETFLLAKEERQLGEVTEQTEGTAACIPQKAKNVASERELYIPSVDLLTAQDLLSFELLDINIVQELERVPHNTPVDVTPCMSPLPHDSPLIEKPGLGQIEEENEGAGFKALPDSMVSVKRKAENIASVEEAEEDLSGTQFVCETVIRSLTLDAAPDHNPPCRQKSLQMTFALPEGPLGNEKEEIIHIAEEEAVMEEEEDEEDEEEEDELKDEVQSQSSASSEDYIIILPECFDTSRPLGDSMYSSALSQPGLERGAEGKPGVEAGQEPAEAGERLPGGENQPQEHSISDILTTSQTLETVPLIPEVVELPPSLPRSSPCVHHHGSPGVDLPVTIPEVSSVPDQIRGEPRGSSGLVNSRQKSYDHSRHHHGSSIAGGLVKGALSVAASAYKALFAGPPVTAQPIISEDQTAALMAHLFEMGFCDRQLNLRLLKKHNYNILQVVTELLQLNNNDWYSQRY

FLAG-OPTN = FLAG-OPTN (UniProt Q96CV9)
FLAG-NDP52 = biological target: T3, FLAG-NDP52 (UniProt Q13137)
T3 sequence: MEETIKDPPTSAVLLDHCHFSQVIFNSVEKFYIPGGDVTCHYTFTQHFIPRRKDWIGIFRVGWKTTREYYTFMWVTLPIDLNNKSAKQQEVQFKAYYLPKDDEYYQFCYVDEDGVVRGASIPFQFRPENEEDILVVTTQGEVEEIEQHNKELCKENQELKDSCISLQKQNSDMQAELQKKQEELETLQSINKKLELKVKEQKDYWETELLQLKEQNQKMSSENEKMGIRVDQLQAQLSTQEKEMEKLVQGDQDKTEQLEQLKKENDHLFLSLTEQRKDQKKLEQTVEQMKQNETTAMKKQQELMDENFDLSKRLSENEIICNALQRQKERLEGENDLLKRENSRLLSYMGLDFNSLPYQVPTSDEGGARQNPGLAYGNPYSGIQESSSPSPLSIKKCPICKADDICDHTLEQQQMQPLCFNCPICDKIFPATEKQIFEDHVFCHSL

[1] = biological target: FLAG-p62 (Sequestosome 1, SQSTM1) (UniProt Q13501)
FLAG-NIX = FLAG-NIX (UniProt O60238)
FLAG-TBK1 Y329A mutant = FLAG-TBK1 Y329A mutant (UniProt Q9UHD2)
[2] = biological target: T4, FLAG-TRIM27 (Tripartite Motif protein 27) (UniProt P14373)
T4 sequence: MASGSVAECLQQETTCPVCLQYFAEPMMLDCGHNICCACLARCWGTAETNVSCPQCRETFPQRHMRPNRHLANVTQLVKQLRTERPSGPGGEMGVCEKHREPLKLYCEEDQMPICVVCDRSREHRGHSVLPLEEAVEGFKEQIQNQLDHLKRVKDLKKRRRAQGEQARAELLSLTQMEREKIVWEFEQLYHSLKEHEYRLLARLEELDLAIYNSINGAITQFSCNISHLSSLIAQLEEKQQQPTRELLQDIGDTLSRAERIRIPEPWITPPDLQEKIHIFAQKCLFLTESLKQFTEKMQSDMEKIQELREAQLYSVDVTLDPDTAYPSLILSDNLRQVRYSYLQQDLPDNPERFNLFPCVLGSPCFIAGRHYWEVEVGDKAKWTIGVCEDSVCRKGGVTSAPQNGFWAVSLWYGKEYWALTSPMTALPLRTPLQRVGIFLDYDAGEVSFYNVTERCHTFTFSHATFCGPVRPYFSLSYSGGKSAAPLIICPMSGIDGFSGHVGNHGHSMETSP

GRA4 (construct of Figures S3C and S4C, tag not shown) (from UniProt S8EUV6 1-345)
binding (TBK1 S172A): binds weakly

HA-GRA4 (Toxoplasma gondii dense granule protein 4) (from UniProt S8EUV6 1-345)
binding (FLAG-NBR1): binds | binding (FLAG-OPTN): binds | binding (FLAG-NDP52): no binding | binding [1]: binds | binding (FLAG-NIX): binds

MYC-GRA4 (Toxoplasma gondii dense granule protein 4) (from UniProt S8EUV6 1-345)
binding (FLAG-TBK1 Y329A mutant): no binding | binding [2]: binds | binding [1]: binds
